Results on 45 sequences are retold here after the supplement of paper PMC11417369.

The list shows a part of the results.

The subject of this experiment is PfSIP2 AP2 domain 1 (GST-tagged). In words: gcPBM binding intensity (ln(normalized median fluorescence intensity)); higher = stronger DNA binding. A digest of the protocol: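 Binding intensity values are the highest Masliner-normalised natural-log median intensity among replicate spots of either probe orientation. The binding step lasted 1 h in 1× PBS with 1% milk, 0.2 mg/ml BSA, 0.5% salmon testes DNA and 0.03% Triton X-100, using GST-tagged P. falciparum DNA-binding domains expressed in E. coli on an Agilent 4 × 180k array of primer-extended double-stranded 36-bp intergenic genomic probes plus negative controls. Alexa488 anti-GST antibody and a 488 nm scan detected bound protein.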
On to “GGGAAACGATTTAATACACACACGTATTATATATAT [CACACA_site1160]”, for which the “gcPBM binding intensity (ln)” value came out at 7.77.

As for “CATTTTTTGTAAAATCGTACATATACATAAAGTGGT [XGTACX_site3423]”, the “gcPBM binding intensity (ln)” value was 7.21.

As for “CACAAAAGTAAGCACGCACACACAACATGAAATAAA [CACACA_site7938]”, the “gcPBM binding intensity (ln)” value amounted to 7.1.

Regarding “TATGAATTTATCTACAACATTTGAAATAAATTAAAA [CACACA_negctrl_site79]”, the “gcPBM binding intensity (ln)” value is 6.72.

Turning to AATACACACCTGTGGGTGCTTATAATAAGCCACAAA, the “gcPBM binding intensity (ln)” value amounted to 7.66.

For “TATTTTTTTATTTATTGTACTTTAAAAAAAATTAAA [XGTACX_site6167]”, the “gcPBM binding intensity (ln)” value turned out to be 7.39.

“TAACAAATATTATTTTGTACATAATATATATATATA [XGTACX_site6898]”: the “gcPBM binding intensity (ln)” value worked out at 8.45.

“TTATAAAAATATTACGCACACACAAACTTATTCATT [CACACA_site1970]”: the “gcPBM binding intensity (ln)” value turned out to be 7.06.

For “TATATATATTAATTTATTTATTTGTTTATTTATTTA [CACACA_negctrl_site185]”, the “gcPBM binding intensity (ln)” value turned out to be 7.31.

Turning to “ATATATTTATATTATACACACAAAAATATTTTGTAT [CACACA_site6262]”, the “gcPBM binding intensity (ln)” value was 6.96.

Turning to “ATATAATAATATTATACATGCAAAATATGTTCTTCA [TGCATGCA_site115]”, the “gcPBM binding intensity (ln)” value was found to be 6.95.

Take “AGACTATCATTTTTTTAACACACAAAAAAAATAAAA [CACACA_site9173]”: the “gcPBM binding intensity (ln)” value came to 7.06.

In the case of “ATCGCATATACATTATATTTTATAATAATTATTTTT [GTGCAC_negctrl_site48]”, the “gcPBM binding intensity (ln)” value came to 7.17.

For the sequence “GGAACCATCCAAAAAAAAAAAAAAAATAATAATAAT [CACACA_negctrl_site383]”, the “gcPBM binding intensity (ln)” value amounted to 6.76.

With “ACATGTACAGAAATTTATATATATATATATATATAT [CACACA_negctrl_site1584]”, the “gcPBM binding intensity (ln)” value amounted to 9.51.

As for “ATTATTATGTATTGCCGTACACATATTATCACAGAA [XGTACX_site3740]”, the “gcPBM binding intensity (ln)” value stood at 7.2.

Take “TCTTCATATATAATTGTACACACAAAAACGACATTG [CACACA_site8645]”: the “gcPBM binding intensity (ln)” value was 7.31.

With “TATTATAATTAATATACACACGCTTATATATATATA [CACACA_site75]”, the “gcPBM binding intensity (ln)” value was 9.05.

For the sequence “TATAAATAAACATTTACACACTCTTATAATAAATAT [CACACA_site1679]”, the “gcPBM binding intensity (ln)” value is 6.76.

With “AACTAATAGTATATTACATGCAAAAGTAAAAGTAAA [TGCATGCA_site411]”, the “gcPBM binding intensity (ln)” value was determined as 7.24.

Turning to “CTCACAATACTTACATGTACATATTATATATATAAA [XGTACX_site1880]”, the “gcPBM binding intensity (ln)” value amounted to 7.54.

Regarding GTTGAAATAAAATTAGTGCATATATAAATATATATA, the “gcPBM binding intensity (ln)” value came out at 8.93.

Regarding “ACTGAAAAAAGAAATACACACATTCTGGATCAGATA [CACACA_site7760]”, the “gcPBM binding intensity (ln)” value was found to be 6.87.

Take “TCATTCTTGTGTTTATGTACACATATTTATATTGTA [XGTACX_site710]”: the “gcPBM binding intensity (ln)” value was 7.16.

Take “TTATCATTTTTGGAATGTACTTACATTAAATATTTA [XGTACX_site4034]”: the “gcPBM binding intensity (ln)” value was 6.87.

Regarding “TATATGCAAAATGTCACACATGTGATAAATACATAT [CACACA_site4302]”, the “gcPBM binding intensity (ln)” value stood at 6.89.

For “ATTTTATTTTTTCACACACACATATATATATATATA [CACACA_site3334]”, the “gcPBM binding intensity (ln)” value was 9.37.

With “CCCAGGAATATAAAATGTACATAAAAAATACAAATT [XGTACX_site1708]”, the “gcPBM binding intensity (ln)” value amounted to 7.07.

For the sequence “AGTACATTATAGAATACACACCTATACATTTATATA [CACACA_site6391]”, the “gcPBM binding intensity (ln)” value was determined as 6.91.

In the case of “TTTTTTTTTTTTGGATGTACTTAATGAAAATGTTAC [XGTACX_site8980]”, the “gcPBM binding intensity (ln)” value was determined as 7.36.

As to “TAAGCACAAGCACAAGCACACATTTATATATATATA [CACACA_site883]”, the “gcPBM binding intensity (ln)” value came to 8.95.

For “TCTTTGTATATATGTTCATTTGTAATATATATTCAT [TGCATGCA_negctrl_site467]”, the “gcPBM binding intensity (ln)” value came out at 7.18.

As for “TATTTGTGAAGAAATTGTACTCATATCTACATTTAT [XGTACX_site2245]”, the “gcPBM binding intensity (ln)” value was 6.96.

Regarding “ATAATAATATAAAAATGTACATATATTTATAATTGT [XGTACX_site3429]”, the “gcPBM binding intensity (ln)” value was determined as 7.15.

With “TGATTATTTTATATTTGTACACATATCATATAAAAA [XGTACX_site5868]”, the “gcPBM binding intensity (ln)” value stood at 7.13.

As to “ATGCAAACTAAAAGACGTACAGAAAAGTATCATACT [XGTACX_site8766]”, the “gcPBM binding intensity (ln)” value is 7.63.

“ACGTTTTTGAGTAGTACACACACAATAAGGATGGAT [CACACA_site9044]”: the “gcPBM binding intensity (ln)” value turned out to be 7.44.

Take “ACATAATATTGAAGAAGTACAAATTTTATTTATTAT [XGTACX_site4113]”: the “gcPBM binding intensity (ln)” value was 7.01.

In the case of “AATATAATATATATTAGTACATATATATATATATAT [XGTACX_site870]”, the “gcPBM binding intensity (ln)” value amounted to 9.56.

For the sequence “CCTCATATTATAGACACACACAAAAAAAATAAAAAA [CACACA_site180]”, the “gcPBM binding intensity (ln)” value was determined as 7.25.

Take “TCATTATTATATAATTGTACATAATAATTATATCCA [XGTACX_site1801]”: the “gcPBM binding intensity (ln)” value worked out at 6.95.

In the case of “ATGTATGTGTATATATGTACATAATATATATCTTTT [XGTACX_site8666]”, the “gcPBM binding intensity (ln)” value was found to be 7.04.

Take “AGGTGCAAAAATAAAACATGCAAAAATAAAAATGAA [TGCATGCA_site502]”: the “gcPBM binding intensity (ln)” value was 9.93.

In the case of AATAATTAAATAAGAGTGCATGAAACAGGAAATTTC, the “gcPBM binding intensity (ln)” value is 8.31.

With “TAATAAAAAATATATACACACAAATAAATAAATAAA [CACACA_site4037]”, the “gcPBM binding intensity (ln)” value was 7.
